Consider 42 compounds from paper PMC4336329 (PLoS ONE, 2015).

The campaign covered roughly 310,000 compounds. About 2,200 (0.71%) showed an effect of 50% or more. Effects have a minus sign here. Some of the results follow.

The assay deals with human ether-à-go-go-related gene (hERG) potassium channel (human, UniProt Q12809). Description: primary screen, population patch clamp on CHO cells stably expressing hERG.
Sequence of human ether-à-go-go-related gene (hERG) potassium channel (Q12809 whole entry, looked up): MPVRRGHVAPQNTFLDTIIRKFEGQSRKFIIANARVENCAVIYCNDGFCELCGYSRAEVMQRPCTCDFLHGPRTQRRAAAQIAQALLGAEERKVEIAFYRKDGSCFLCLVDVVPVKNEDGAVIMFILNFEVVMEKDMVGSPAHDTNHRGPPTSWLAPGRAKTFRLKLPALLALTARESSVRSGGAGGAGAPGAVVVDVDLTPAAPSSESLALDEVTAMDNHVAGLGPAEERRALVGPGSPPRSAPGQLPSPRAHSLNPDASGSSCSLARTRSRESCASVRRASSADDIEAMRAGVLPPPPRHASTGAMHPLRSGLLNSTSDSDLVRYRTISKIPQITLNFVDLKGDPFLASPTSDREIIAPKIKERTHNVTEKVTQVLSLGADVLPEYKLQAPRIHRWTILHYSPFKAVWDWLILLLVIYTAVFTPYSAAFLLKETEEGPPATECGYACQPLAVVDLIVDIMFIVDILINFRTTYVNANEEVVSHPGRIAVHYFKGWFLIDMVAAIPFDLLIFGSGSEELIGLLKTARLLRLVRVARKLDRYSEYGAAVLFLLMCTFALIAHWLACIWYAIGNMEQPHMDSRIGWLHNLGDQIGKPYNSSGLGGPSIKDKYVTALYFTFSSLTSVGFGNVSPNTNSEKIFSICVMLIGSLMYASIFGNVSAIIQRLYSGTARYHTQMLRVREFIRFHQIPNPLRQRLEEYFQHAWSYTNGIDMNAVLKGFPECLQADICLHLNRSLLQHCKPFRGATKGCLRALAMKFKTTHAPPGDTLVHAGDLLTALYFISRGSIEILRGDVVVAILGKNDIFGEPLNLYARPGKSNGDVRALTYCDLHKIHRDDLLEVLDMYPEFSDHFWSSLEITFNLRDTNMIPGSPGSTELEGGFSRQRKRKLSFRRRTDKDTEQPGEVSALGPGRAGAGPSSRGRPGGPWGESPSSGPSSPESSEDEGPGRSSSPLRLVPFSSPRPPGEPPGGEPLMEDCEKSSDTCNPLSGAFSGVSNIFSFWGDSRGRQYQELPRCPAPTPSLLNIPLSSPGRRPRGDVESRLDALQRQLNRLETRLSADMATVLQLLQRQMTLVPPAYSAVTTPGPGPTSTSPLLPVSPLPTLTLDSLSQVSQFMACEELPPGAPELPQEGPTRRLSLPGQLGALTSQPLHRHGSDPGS
As for `O=C(CNS(=O)(=O)c1cccc(Br)c1)NCC1CCCCC1`, the “hERG current change (%, negative = inhibition) at 1uM” value came out at 10.9%.
The result for `CCCC(=O)N1CCN(c2nnc(-c3ccc(C)cc3)c3ccccc23)CC1` reads -7.41%; that for `CCCC(=O)Nc1cc(C)c(NC(=O)C23CC4CC(CC(C4)C2)C3)cn1`, -1.21%; that for `CC[C@@H](C)[C@H](NC(=O)OCc1ccccc1)c1nnc([C@@H](NC(=O)OCc2ccccc2)[C@@H](C)CC)o1`, 0.473%.
With `CCN(CC)CCn1c2ccccc2c2nc3ccc([N+](=O)[O-])cc3cc21` the figure was 11.3%; with `CC(NC(=O)C(C(=O)c1cccc([N+](=O)[O-])c1)n1cc(Cl)ccc1=O)c1ccccc1` (stereo not drawn), 5.65%; with `O=C(COC(=O)Cc1c(Cl)cccc1Cl)NCC1CCCO1` (stereo not drawn), 12%.
The result for `CCc1nnc(SCC(=O)Nc2ccc3c(c2)OCO3)o1` reads 16%; that for `CC1CCC(CN2C(Nc3ccccc3)=NC[C@@H]2C)CC1` (stereo partly drawn), 4.01%.
In the case of `CCN(C(=O)c1cc(Cl)ccc1OC)c1ccccc1C`, the “hERG current change (%, negative = inhibition) at 1uM” value was found to be 8.13%.
With `O=C(O)C1=C[C@H](c2ccc3c(c2)OCO3)C[C@H](OCCCCO)O1` the figure was 13.5%; with `O=C(c1cc(-c2ccc(F)cc2)on1)N1CCN(c2ccc(F)cc2)CC1`, 4.64%; with `C#CCOCCOCCOCCNc1nc(N2CCN(C(=O)[C@H]([C@@H](C)CC)n3cc([C@@H](N)Cc4ccc(O)cc4)nn3)CC2)nc(N2CCN(C(=O)[C@H](Cc3ccc(O)cc3)n3cc([C@@H](N)CC(C)C)nn3)CC2)n1.Cl`, 3.59%.
With `Br.COc1cc2c(cc1OC)-c1c(OC)c(OC)cc3c1[C@H](C2)[NH+](C)CC3` the figure was 2.14%; with `O=C(CCC1CCCC1)N1CCN(C(=O)c2cccnc2)CC1`, -0.154%.
Take `CN(/N=C\c1ccc(O)c(O)c1)c1nc(-c2ccccc2)cc(-c2ccccc2)n1`: the “hERG current change (%, negative = inhibition) at 1uM” value is reported as 7.52%.
As for `Cc1ccccc1C(=O)Nc1c(C(=O)N2CCN(C)CC2)cnn1-c1ccccc1`, the “hERG current change (%, negative = inhibition) at 1uM” value amounted to 1.11%.
The result for `O=C(CCc1nc2ccccc2c(=O)[nH]1)OCc1ccccc1F` reads 4.73%.
The result for `Cc1c(Cl)c([N+](=O)[O-])nn1CC(=O)N1CCc2ccccc2C1` reads 11.9%; that for `COc1ccccc1C/C(N)=N/OC(=O)c1ccco1`, -1.28%; that for `CC(=O)Nc1nnc(SCc2ccc(C(=O)Nc3ccccc3F)cc2)s1`, 11.1%.
With `C=CCn1c(=O)c(C(=O)Nc2ccccc2S(N)(=O)=O)c(O)c2ccccc21`, the “hERG current change (%, negative = inhibition) at 1uM” value came out at 9.4%.
For the compound `CN(C)S(=O)(=O)c1cccc(NC(=O)Cc2ccc(-c3ccccc3)cc2)c1`, the “hERG current change (%, negative = inhibition) at 1uM” value is given as 12.1%.
The result for `O=C(Cc1ccccc1)NCCCc1ccccc1` reads 11.1%; that for `COc1ccc(S(=O)(=O)N(C)c2ccc(C(=O)N3CCC(C(N)=O)CC3)cc2)cc1`, -1.86%; that for `CCOC(=O)C1=C(COC(=O)/C=C/c2ccc(C)o2)NC(=O)NC1C` (stereo not drawn), 6.48%.
Consider `CCn1c(O)c(/C=N/NC(=O)c2ccccc2)c(=O)n(CC)c1=S`, for which the “hERG current change (%, negative = inhibition) at 1uM” value turned out to be 10%.
The result for `CCC1CCCCN1C(=O)COC(=O)CN(C)S(=O)(=O)c1ccc(NC(C)=O)cc1` (stereo not drawn) reads 15.5%; that for `CCCCn1c(N)c(N(CC(C)C)C(=O)c2c(-c3ccccc3)noc2C)c(=O)[nH]c1=O`, -0.198%; that for `Cc1cc(C)cc(NC(=O)Cc2ccc(NC3=NC4CS(=O)(=O)CC4S3)cc2)c1` (stereo not drawn), 8.81%.
Take `CCn1c(COc2ccccc2)nnc1SCC(=O)NC1CC1`: the “hERG current change (%, negative = inhibition) at 1uM” value stood at 7.06%.
The result for `Cc1cccc(NC(=O)CCS(=O)(=O)c2cccc3nsnc23)c1C` reads 14.8%.
With `O=C(NCc1ccco1)c1ccc(CS(=O)(=O)c2cccc(C(F)(F)F)c2)o1` the figure was -16.2%.
In the case of `C=CCNC(=O)c1ccccc1NC(=O)Nc1ccccc1`, the “hERG current change (%, negative = inhibition) at 1uM” value is given as 16.7%.
Take `CS(=O)(=O)O.Cc1cc2c(cc1[N+](=O)[O-])NC(CNC(C)C)CC2` (stereo not drawn): the “hERG current change (%, negative = inhibition) at 1uM” value worked out at 4.44%.
The result for `COC(=O)[C@H](CCSC)NC(=O)Nc1ccc(OC)cc1` reads 3.71%.
Regarding `Cc1ccccc1NC(=O)CN1C(=O)c2ccccc2C1=O`, the “hERG current change (%, negative = inhibition) at 1uM” value is reported as 9.9%.
The result for `COc1ccc(CN2CCn3ncc(C(=O)Nc4ccccc4)c3C2=O)cc1` reads 4.98%; that for `Cc1cc(C(=O)COc2ccccc2Cl)c(C)n1C1CC1`, -1.36%.
With `CC(=O)Nc1cccc(Oc2ncnc3scc(-c4ccc(C(C)C)cc4)c23)c1`, the “hERG current change (%, negative = inhibition) at 1uM” value was determined as 12.6%.
For the compound `CCN1CCN(c2cc(C)c3cc(NC(=S)N4CCC5(CC4)OCCO5)ccc3n2)CC1`, the “hERG current change (%, negative = inhibition) at 1uM” value stood at 6.44%.
With `N#Cc1ccc(Oc2ccc(C(N)=O)cc2)cc1C#N` the figure was 7.47%.
